Test results reported in PubChem BioAssay AID1460 (National Center for Advancing Translational Sciences (NCATS), 2008).
Out of some 270,000 compounds screened, about 5,800 (2.1%) were called active. Inconclusive results, whose numbers are uncertain, are shown with a selection of clear calls. Calls come from the whole dose curve; as a rule, active = well fitted inhibition curve with a large enough effect; inconclusive = small, poorly fitted or top-dose-only effect; inactive = flat fitted curve, though single readings scatter. Potencies of inconclusive entries are doubtful fits and often do not repeat.
Note: nearly all actives have a fitted effect of over 55% in size.
Potency is the fitted concentration of half-maximal effect; tags give direction and shape of the fitted curve.

What follows are molecules tested against Microtubule-associated protein tau (Homo sapiens) (UniProt P10636) (assay: qHTS for Inhibitors of Tau Fibril Formation, Thioflavin T Binding). Conditions: recombinant tau K18 P301L, heparin-induced fibrillization, ThT fluorescence; series mostly up to 57.4 µM.
UniProt P10636, sequence (P10636 whole entry, looked up): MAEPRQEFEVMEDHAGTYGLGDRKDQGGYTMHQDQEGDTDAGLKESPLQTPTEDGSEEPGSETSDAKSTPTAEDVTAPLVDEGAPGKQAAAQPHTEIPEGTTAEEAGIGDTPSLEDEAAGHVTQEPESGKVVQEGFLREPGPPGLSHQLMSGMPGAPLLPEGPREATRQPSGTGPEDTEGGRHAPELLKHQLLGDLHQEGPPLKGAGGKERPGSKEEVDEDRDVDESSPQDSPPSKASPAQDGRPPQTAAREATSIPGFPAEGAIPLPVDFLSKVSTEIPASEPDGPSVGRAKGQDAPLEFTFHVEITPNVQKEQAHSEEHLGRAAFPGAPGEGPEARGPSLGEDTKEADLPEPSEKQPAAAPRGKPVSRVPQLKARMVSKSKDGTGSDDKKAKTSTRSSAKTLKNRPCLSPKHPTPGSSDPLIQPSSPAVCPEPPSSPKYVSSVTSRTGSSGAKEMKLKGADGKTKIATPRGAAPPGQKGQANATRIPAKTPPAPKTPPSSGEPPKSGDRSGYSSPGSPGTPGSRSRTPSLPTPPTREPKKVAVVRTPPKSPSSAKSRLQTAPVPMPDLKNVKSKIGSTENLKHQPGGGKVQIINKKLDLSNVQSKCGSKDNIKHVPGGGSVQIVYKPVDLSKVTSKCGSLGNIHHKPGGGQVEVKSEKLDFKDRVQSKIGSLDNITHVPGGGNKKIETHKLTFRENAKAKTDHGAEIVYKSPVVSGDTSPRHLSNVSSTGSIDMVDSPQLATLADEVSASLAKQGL
Method in brief: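 Fibril formation assay: tau K18 P301L at 15 uM with trace Alexa 594 label, heparin inducer 20 uM, pH 7 sodium acetate buffer, 37 C for 6 hr; endpoint ThT signal.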
`COc1cc(C2NC(=O)NC(c3ccccc3)=C2C(C)=O)ccc1OCC#N` (stereo not drawn) was tested, and the Potency was “inactive”.
For `Cc1cc(-c2ccc(S(=O)(=O)Nc3ccccc3F)s2)on1`, the Potency was “inactive”.
`COc1cccc(/C=N/n2c(N)c(S(=O)(=O)c3cccs3)c3nc4ccccc4nc32)c1OC` was tested, and the Potency was “inactive”.
In the case of `COC(=O)C1=C(C)NC(C)=C(C(=O)OC)C1C1CC=CCC1` (stereo not drawn), the Potency is reported as “inactive”.
With `Cc1c(C(=O)Nc2cccc(Cl)c2)oc2ccc(S(=O)(=O)N3CCCCCC3)cc12` the Potency was inconclusive: 12.6 µM [activator, partial curve].
`COC(=O)c1ccc(CSc2nnc(-c3ccccc3)n2C)o1` was tested, and the Potency was “inactive”.
For `Cc1ccc(CN2COc3ccc4c(-c5ccccc5)cc(=O)oc4c3C2)cc1`, the Potency was inconclusive: 15.8 µM [inhibitor, partial curve].
For `C(=N\Nc1ccccn1)/c1c[nH]c2ccccc12`, the Potency was active: 7.08 µM.
`O=c1[nH]c(/C=C\c2cccnc2)c([N+](=O)[O-])c(=O)[nH]1` was tested, and the Potency was “inactive”.
For `CCOC(=O)C(O)(NC(=O)c1cccnc1)C(F)(F)F` (stereo not drawn), the Potency was “inactive”.
With `CCN1C(=O)/C(=C/c2nc3ccccc3c(=O)n2-c2ccccc2)c2ccccc21` the Potency was inconclusive: 25.1 µM [inhibitor, partial curve].
In the case of `CC(=O)Nc1ccc(Nc2nc(C)c([N+](=O)[O-])c(Nc3ccccc3)n2)cc1`, the Potency is reported as active: 8.91 µM.
For `CCOC(=O)CSc1nc2sc3c(c2c(=O)n1-c1ccccc1)CC(C(C)C)OC3` (stereo not drawn), the Potency was inconclusive: 3.55 µM [inhibitor, full curve, poor fit].
`O=C(OC1CCN(c2ccc([N+](=O)[O-])cc2)CC1)c1ccccc1` was tested, and the Potency was inconclusive: 1.41 µM [inhibitor, full curve].
`O=C(Cc1nc2ccccc2[nH]1)c1ccc([N+](=O)[O-])cc1` was tested, and the Potency was active: 15.8 µM.
In the case of `O=C(CSc1nnc(-c2ccncc2)o1)Nc1ccccc1Cl`, the Potency is reported as “inactive”.
For `O=C1/C(=C/c2cccnc2)SC(=S)N1CC1CCCO1` (stereo not drawn), the Potency was “inactive”.
In the case of `CCc1nn(CC(=O)Nc2ccc(Br)c(C)c2)c(=N)s1`, the Potency is reported as inconclusive: 28.2 µM [inhibitor, single point].
`O=C(CNS(=O)(=O)c1c(Cl)cccc1Cl)OCC(=O)c1ccc[nH]1` was tested, and the Potency was inconclusive: 20 µM [inhibitor, partial curve].
`O=C(COC(=O)c1cccs1)c1ccccc1` was tested, and the Potency was “inactive”.
`CC(/C=N/NC(=O)c1ccncc1)=C\c1ccc(C(C)C)cc1` was tested, and the Potency was active: 20 µM.
For `Cc1ccc(C(=O)Nc2nnc(CC(=O)N/N=C/c3ccncc3)s2)cc1`, the Potency was inconclusive: 15.8 µM [inhibitor, partial curve].
For `CC(=O)Nc1ccc(NC2=C(Cl)C(=O)c3ccccc3C2=O)cc1`, the Potency was active: 2 µM.
